These are yes or no findings as the source states them, for the method shown. Binding seen in cells or lysates may run through a third protein. Some binding calls cover weakened binding; strength is not graded here. For part of these data: Sequences can lack the tags named with a protein.

For assay [1], the target named is T1, tandem affinity purification (TAP)-tagged Reb1 (Reb1-TAP) (S. cerevisiae (endogenous in yeast)) (UniProt P21538).
T1 sequence: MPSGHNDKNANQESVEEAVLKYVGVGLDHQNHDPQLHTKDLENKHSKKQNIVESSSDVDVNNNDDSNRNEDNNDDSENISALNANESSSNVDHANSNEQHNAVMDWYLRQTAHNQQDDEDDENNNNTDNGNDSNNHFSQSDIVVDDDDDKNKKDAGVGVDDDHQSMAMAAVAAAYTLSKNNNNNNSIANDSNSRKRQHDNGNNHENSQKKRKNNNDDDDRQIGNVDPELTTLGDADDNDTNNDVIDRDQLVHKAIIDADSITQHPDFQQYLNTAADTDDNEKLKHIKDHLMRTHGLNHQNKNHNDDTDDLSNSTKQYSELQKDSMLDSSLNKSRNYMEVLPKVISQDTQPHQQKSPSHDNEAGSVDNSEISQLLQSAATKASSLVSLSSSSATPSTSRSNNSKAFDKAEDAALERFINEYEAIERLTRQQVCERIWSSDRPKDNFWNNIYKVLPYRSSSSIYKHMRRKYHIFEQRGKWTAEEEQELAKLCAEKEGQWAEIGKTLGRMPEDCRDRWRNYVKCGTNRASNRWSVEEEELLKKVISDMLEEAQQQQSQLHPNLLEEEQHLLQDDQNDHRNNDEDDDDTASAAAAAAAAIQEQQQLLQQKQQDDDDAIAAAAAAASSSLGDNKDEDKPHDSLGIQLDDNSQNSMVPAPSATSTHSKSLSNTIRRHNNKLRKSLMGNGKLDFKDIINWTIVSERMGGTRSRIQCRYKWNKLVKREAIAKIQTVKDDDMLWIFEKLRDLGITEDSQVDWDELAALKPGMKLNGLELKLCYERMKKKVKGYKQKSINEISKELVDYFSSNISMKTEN
Briefly: co-IP; Reb1-TAP immunoprecipitated with calmodulin beads from MNase-digested whole cell extract; 10 mM Tris pH 8.0, 150-350 mM NaCl, 2 mM CaCl2, 0.1% NP-40, 4 h at 4 °C.

Assay [2] concerns the target T2, pyruvate kinase Pyk1 (S. cerevisiae (endogenous in yeast)) (UniProt P00549).
T2 sequence: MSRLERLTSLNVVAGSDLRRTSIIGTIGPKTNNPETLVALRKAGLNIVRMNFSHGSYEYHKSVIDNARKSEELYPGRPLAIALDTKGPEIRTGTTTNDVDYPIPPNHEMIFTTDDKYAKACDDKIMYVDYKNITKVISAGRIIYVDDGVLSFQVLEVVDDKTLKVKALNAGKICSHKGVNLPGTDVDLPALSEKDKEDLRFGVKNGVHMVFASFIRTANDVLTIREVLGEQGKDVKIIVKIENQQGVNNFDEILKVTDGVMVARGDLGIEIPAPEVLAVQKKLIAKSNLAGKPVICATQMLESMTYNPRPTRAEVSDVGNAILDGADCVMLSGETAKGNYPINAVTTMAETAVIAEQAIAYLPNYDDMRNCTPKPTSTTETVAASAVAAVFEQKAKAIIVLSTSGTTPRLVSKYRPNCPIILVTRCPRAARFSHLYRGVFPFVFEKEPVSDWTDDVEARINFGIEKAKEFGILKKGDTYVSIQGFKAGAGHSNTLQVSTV
Briefly: co-IP; endogenous Pyk1 immunoprecipitated with anti-Pyk1 antibody from yeast cell extract.

The target in another assay is H3pT11 (1–23) peptide. The assay is described as follows: pull-down; 1.0 µg biotinylated histone peptide incubated with 0.5 ml yeast whole cell extract in 50 mM Tris-HCl pH 7.5, 250 mM NaCl, 0.1% NP-40, overnight at 4 °C; Streptavidin beads; immunoblot; only the target purified.
The target in assay [3] is Unmodified H3 (1–23) peptide. Described as above.

B1: pyruvate kinase Pyk1 (enzyme, UniProt P00549 1-500)
chain: MSRLERLTSLNVVAGSDLRRTSIIGTIGPKTNNPETLVALRKAGLNIVRMNFSHGSYEYHKSVIDNARKSEELYPGRPLAIALDTKGPEIRTGTTTNDVDYPIPPNHEMIFTTDDKYAKACDDKIMYVDYKNITKVISAGRIIYVDDGVLSFQVLEVVDDKTLKVKALNAGKICSHKGVNLPGTDVDLPALSEKDKEDLRFGVKNGVHMVFASFIRTANDVLTIREVLGEQGKDVKIIVKIENQQGVNNFDEILKVTDGVMVARGDLGIEIPAPEVLAVQKKLIAKSNLAGKPVICATQMLESMTYNPRPTRAEVSDVGNAILDGADCVMLSGETAKGNYPINAVTTMAETAVIAEQAIAYLPNYDDMRNCTPKPTSTTETVAASAVAAVFEQKAKAIIVLSTSGTTPRLVSKYRPNCPIILVTRCPRAARFSHLYRGVFPFVFEKEPVSDWTDDVEARINFGIEKAKEFGILKKGDTYVSIQGFKAGAGHSNTLQVSTV
Take B1: the binding result in assay [1] is “binds”.

B2: Shm2 (enzyme, UniProt P37291 1-469)
chain: MPYTLSDAHHKLITSHLVDTDPEVDSIIKDEIERQKHSIDLIASENFTSTSVFDALGTPLSNKYSEGYPGARYYGGNEHIDRMEILCQQRALKAFHVTPDKWGVNVQTLSGSPANLQVYQAIMKPHERLMGLYLPDGGHLSHGYATENRKISAVSTYFESFPYRVNPETGIIDYDTLEKNAILYRPKVLVAGTSAYCRLIDYKRMREIADKCGAYLMVDMAHISGLIAAGVIPSPFEYADIVTTTTHKSLRGPRGAMIFFRRGVRSINPKTGKEVLYDLENPINFSVFPGHQGGPHNHTIAALATALKQAATPEFKEYQTQVLKNAKALESEFKNLGYRLVSNGTDSHMVLVSLREKGVDGARVEYICEKINIALNKNSIPGDKSALVPGGVRIGAPAMTTRGMGEEDFHRIVQYINKAVEFAQQVQQSLPKDACRLKDFKAKVDEGSDVLNTWKKEIYDWAGEYPLAV
With B2, the binding entry in assay [2] and in assay [1] was “binds” throughout.

B3: Set2 (in yeast whole cell extract) (enzyme, UniProt P46995 1-733)
chain: MSKNQSVSASEDEKEILNNNAEGHKPQRLFDQEPDLTEEALTKFENLDDCIYANKRIGTFKNNDFMECDCYEEFSDGVNHACDEDSDCINRLTLIECVNDLCSSCGNDCQNQRFQKKQYAPIAIFKTKHKGYGVRAEQDIEANQFIYEYKGEVIEEMEFRDRLIDYDQRHFKHFYFMMLQNGEFIDATIKGSLARFCNHSCSPNAYVNKWVVKDKLRMGIFAQRKILKGEEITFDYNVDRYGAQAQKCYCEEPNCIGFLGGKTQTDAASLLPQNIADALGVTVSMEKKWLKLKKLSGEPIIKNENENINIEFLQSLEVQPIDSPVDVTKIMSVLLQQDNKIIASKLLKRLFTIDDDSLRHQAIKLHGYTCFSKMLKLFITEQPQVDGKGNETEEDDIKFIKGILDFLLELPKTTRNGIESSQIDNVVKTLPAKFPFLKPNCDELLEKWSKFETYKRITKKDINVAASKMIDLRRVRLPPGWEIIHENGRPLYYNAEQKTKLHYPPSGSSKVFSSRSNTQVNSPSSSGIPKTPGALDSKKHKLSDEEYERKKQKRLEYERIALERAKQEELESLKQKLKLENERKSVLEDIIAEANKQKELQKEEAKKLVEAKEAKRLKRKTVSQSQRLEHNWNKFFASFVPNLIKKNPQSKQFDHENIKQCAKDIVKILTTKELKKDSSRAPPDDLTKGKRHKVKEFINSYMDKIILKKKQKKALALSSASTRMSSPPPSTSS
As to B3, the binding result (with H3pT11 (1–23) peptide; in assay [3]) was “binds” each time.

B4: Set1 (in yeast whole cell extract) (enzyme, UniProt P38827 1-1080)
chain: MSNYYRRAHASSGSYRQPQEQPQYSRSGHYQYSNGHSHQQYSSQYNQRRRYNHNDGTRRRYNDDRPHSSNNASTRQYYATNNSQSGPYVNKKSDISSRRGMSQSRYSNSNVHNTLASSSGSLPTESALLLQQRPPSVLRYNTDNLKSKFHYFDPIKGEFFNKDKMLSWKATDKEFSETGYYVVKELQDGQFKFKIKHRHPEIKASDPRNENGIMTSGKVATHRKCRNSLILLPRISYDRYSLGPPPSCEIVVYPAQDSTTTNIQDISIKNYFKKYGEISHFEAFNDPNSALPLHVYLIKYASSDGKINDAAKAAFSAVRKHESSGCFIMGFKFEVILNKHSILNNIISKFVEINVKKLQKLQENLKKAKEKEAENEKAKELQGKDITLPKEPKVDTLSHSSGSEKRIPYDLLGVVNNRPVLHVSKIFVAKHRFCVEDFKYKLRGYRCAKFIDHPTGIYIIFNDIAHAQTCSNAESGNLTIMSRSRRIPILIKFHLILPRFQNRTRFNKSSSSSNSTNVPIKYESKEEFIEATAKQILKDLEKTLHVDIKKRLIGPTVFDALDHANFPELLAKRELKEKEKRQQIASKIAEDELKRKEEAKRDFDLFGLYGGYAKSNKRNLKRHNSLALDHTSLKRKKLSNGIKPMAHLLNEETDSKETTPLNDEGITRVSKEHDEEDENMTSSSSEEEEEEAPDKKFKSESEPTTPESDHLHGIKPLVPDQNGSSDVLDASSMYKPTATEIPEPVYPPEEYDLKYSQTLSSMDLQNAIKDEEDMLILKQLLSTYTPTVTPETSAALEYKIWQSRRKVLEEEKASDWQIELNGTLFDSELQPGSSFKAEGFRKIADKLKINYLPHRRRVHQPLNTVNIHNERNEYTPELCQREESSNKEPSDSVPQEVSSSRDNRASNRRFQQDIEAQKAAIGTESELLSLNQLNKRKKPVMFARSAIHNWGLYALDSIAAKEMIIEYVGERIRQPVAEMREKRYLKNGIGSSYLFRVDENTVIDATKKGGIARFINHCCDPNCTAKIIKVGGRRRIVIYALRDIAASEELTYDYKFEREKDDEERLPCLCGAPNCKGFLN
As to B4, the binding result (with H3pT11 (1–23) peptide; in assay [3]) was “binds” each time.

B5: Acs2 (enzyme, UniProt P52910 1-683)
chain: MTIKEHKVVYEAHNVKALKAPQHFYNSQPGKGYVTDMQHYQEMYQQSINEPEKFFDKMAKEYLHWDAPYTKVQSGSLNNGDVAWFLNGKLNASYNCVDRHAFANPDKPALIYEADDESDNKIITFGELLRKVSQIAGVLKSWGVKKGDTVAIYLPMIPEAVIAMLAVARIGAIHSVVFAGFSAGSLKDRVVDANSKVVITCDEGKRGGKTINTKKIVDEGLNGVDLVSRILVFQRTGTEGIPMKAGRDYWWHEEAAKQRTYLPPVSCDAEDPLFLLYTSGSTGSPKGVVHTTGGYLLGAALTTRYVFDIHPEDVLFTAGDVGWITGHTYALYGPLTLGTASIIFESTPAYPDYGRYWRIIQRHKATHFYVAPTALRLIKRVGEAEIAKYDTSSLRVLGSVGEPISPDLWEWYHEKVGNKNCVICDTMWQTESGSHLIAPLAGAVPTKPGSATVPFFGINACIIDPVTGVELEGNDVEGVLAVKSPWPSMARSVWNHHDRYMDTYLKPYPGHYFTGDGAGRDHDGYYWIRGRVDDVVNVSGHRLSTSEIEASISNHENVSEAAVVGIPDELTGQTVVAYVSLKDGYLQNNATEGDAEHITPDNLRRELILQVRGEIGPFASPKTIILVRDLPRTRSGKIMRRVLRKVASNEAEQLGDLTTLANPEVVPAIISAVENQFFSQKKK
In the case of B5, the binding entry in assay [2] and in assay [1] was “binds” each time.

(Values after publication PMC9726891.)
